# Assay results: the supplement of paper PMC8728848
# The other results are listed elsewhere or left out.
# What was measured:
# Experiment in all cases: glycan array binding signal (z-score within array); higher = stronger binding
# Conditions in all cases: glycan notation: IUPAC condensed, linker removed
# [1] = target: Fuc(a1-3)[Gal(b1-4)]GlcNAc
# In short: (§1)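 The binding signal is a Z-score computed within each array. Data were drawn from 3228 arrays in the Consortium for Functional Glycomics database, restricted to those with a known protein sequence. Scores were averaged over arrays of the same protein sequence at different concentrations or buffers, and over linkers, and negative values can be taken as non-binding.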
# [2] = target: Fuc(a1-3)[Gal(b1-4)]GlcNAc(b1-4)Gal(b1-4)[Fuc(a1-3)]GlcNAc
# In short: as §1
# [3] = target: Fuc(a1-3)[Gal(b1-4)]GlcNAc(b1-4)Gal(b1-4)[Fuc(a1-3)]GlcNAc(b1-4)Gal(b1-4)[Fuc(a1-3)]GlcNAc
# In short: as §1
# [4] = target: Fuc(a1-3)[Gal3S(b1-4)]GlcNAc
# In short: as §1
# [5] = target: Fuc(a1-3)[GalNAc(b1-4)]GlcNAc
# In short: as §1
# Fuc(a1-4)GlcNAc = target: Fuc(a1-4)GlcNAc
# In short: as §1
# Fuc(b1-3)GlcNAc = target: Fuc(b1-3)GlcNAc
# In short: as §1
# Gal(a1-2)Gal = target: Gal(a1-2)Gal
# In short: as §1
# Gal(a1-3)Gal = target: Gal(a1-3)Gal
# In short: as §1
# Gal(a1-3)Gal(b1-3)GlcNAc = target: Gal(a1-3)Gal(b1-3)GlcNAc
# In short: as §1
# Gal(a1-3)Gal(b1-4)Glc = target: Gal(a1-3)Gal(b1-4)Glc
# In short: as §1
# Gal(a1-3)Gal(b1-4)GlcNAc = target: Gal(a1-3)Gal(b1-4)GlcNAc
# In short: as §1
# [6] = target: Gal(a1-3)Gal(b1-4)[Fuc(a1-3)]GlcNAc
# In short: as §1
# Gal(a1-3)GalNAc = target: Gal(a1-3)GalNAc
# In short: as §1
# [7] = target: Gal(a1-3)[Gal(a1-4)]Gal(b1-4)GlcNAc
# In short: as §1
# Gal(a1-4)Gal(b1-4)Glc = target: Gal(a1-4)Gal(b1-4)Glc
# In short: as §1
# Gal(a1-4)Gal(b1-4)GlcNAc = target: Gal(a1-4)Gal(b1-4)GlcNAc
# In short: as §1
# Gal(a1-4)GlcNAc = target: Gal(a1-4)GlcNAc
# In short: as §1
# Gal(a1-6)Glc = target: Gal(a1-6)Glc
# In short: as §1
# Gal(b1-2)Gal = target: Gal(b1-2)Gal
# In short: as §1
# Gal(b1-3)Gal = target: Gal(b1-3)Gal
# In short: as §1
# Gal(b1-3)GalNAc = target: Gal(b1-3)GalNAc
# In short: as §1
# [8] = target: Gal(b1-3)GalNAc(b1-3)Gal(a1-4)Gal(b1-4)Glc
# In short: as §1
# [9] = target: Gal(b1-3)GalNAc(b1-4)Gal(b1-4)Glc
# In short: as §1
# [10] = target: Gal(b1-3)GalNAc(b1-4)[Neu5Ac(a2-3)]Gal(b1-4)Glc
# In short: as §1
# Gal(b1-3)GlcNAc = target: Gal(b1-3)GlcNAc
# In short: as §1
# [11] = target: Gal(b1-3)GlcNAc(b1-3)Gal(b1-4)Glc
# In short: as §1
# [12] = target: Gal(b1-3)GlcNAc(b1-3)Gal(b1-4)GlcNAc
# In short: as §1
# [13] = target: Gal(b1-3)[Fuc(a1-4)]GlcNAc
# In short: as §1
# [14] = target: Gal(b1-3)[Fuc(a1-4)]GlcNAc(b1-3)Gal(b1-4)GlcNAc
# In short: as §1
# [15] = target: Gal(b1-3)[Fuc(a1-4)]GlcNAc(b1-3)Gal(b1-4)[Fuc(a1-3)]GlcNAc
# In short: as §1
# [16] = target: Gal(b1-3)[GlcNAc(b1-6)]GalNAc
# In short: as §1
# [17] = target: Gal(b1-3)[Neu5Ac(a2-6)]GalNAc
# In short: as §1
# [18] = target: Gal(b1-3)[Neu5Ac(a2-6)]GlcNAc(b1-6)Gal(b1-4)Glc
# In short: as §1
# [19] = target: Gal(b1-3)[Neu5Ac(b2-6)]GalNAc
# In short: as §1
# [20] = target: Gal(b1-4)GalNAc(a1-3)[Fuc(a1-2)]Gal(b1-4)GlcNAc
# In short: as §1
# [21] = target: Gal(b1-4)GalNAc(b1-3)[Fuc(a1-2)]Gal(b1-4)GlcNAc
# In short: as §1
# Gal(b1-4)Glc = target: Gal(b1-4)Glc
# In short: as §1
# Gal(b1-4)Glc6S = target: Gal(b1-4)Glc6S
# In short: as §1
# Gal(b1-4)GlcNAc = target: Gal(b1-4)GlcNAc
# In short: as §1
# [22] = target: Gal(b1-4)GlcNAc(b1-2)Man(a1-3)[Gal(b1-4)GlcNAc(b1-2)Man(a1-6)]Man(b1-4)GlcNAc(b1-4)GlcNAc
# In short: as §1
binder,measurement,setting,value
"DCIR (Homo sapiens), Q9UMR7 (protein) MTSEITYAEVRFKNEFKSSGINTASSAASKERTAPHKSNTGFPKLLCASLLIFFLLLAISFFIAFVIFFQKYSQLLEKKTTKELVHTTLECVKKNMPVEETAWSCCPKNWKSFSSNCYFISTESASWQDSEKDCARMEAHLLVINTQEEQDFIFQNLQEESAYFVGLSDPEGQRHWQWVDQTPYNESSTFWHPREPSDPNERCVVLNFRKSPKRWGWNDVNCLGPQRSVCEMMKIHL",glycan array binding signal (z-score),[1],-0.434
same,glycan array binding signal (z-score),[2],0.076
same,glycan array binding signal (z-score),[3],-0.494
same,glycan array binding signal (z-score),[4],-0.407
same,glycan array binding signal (z-score),[5],-0.428
same,glycan array binding signal (z-score),Fuc(a1-4)GlcNAc,-0.295
same,glycan array binding signal (z-score),Fuc(b1-3)GlcNAc,-0.551
same,glycan array binding signal (z-score),Gal(a1-2)Gal,-0.512
same,glycan array binding signal (z-score),Gal(a1-3)Gal,-0.425
same,glycan array binding signal (z-score),Gal(a1-3)Gal(b1-3)GlcNAc,-0.435
same,glycan array binding signal (z-score),Gal(a1-3)Gal(b1-4)Glc,-0.429
same,glycan array binding signal (z-score),Gal(a1-3)Gal(b1-4)GlcNAc,0.183
same,glycan array binding signal (z-score),[6],-0.194
same,glycan array binding signal (z-score),Gal(a1-3)GalNAc,-0.433
same,glycan array binding signal (z-score),[7],-0.405
same,glycan array binding signal (z-score),Gal(a1-4)Gal(b1-4)Glc,-0.507
same,glycan array binding signal (z-score),Gal(a1-4)Gal(b1-4)GlcNAc,0.036
same,glycan array binding signal (z-score),Gal(a1-4)GlcNAc,-0.095
same,glycan array binding signal (z-score),Gal(a1-6)Glc,-0.459
same,glycan array binding signal (z-score),Gal(b1-2)Gal,0.027
same,glycan array binding signal (z-score),Gal(b1-3)Gal,0.012
same,glycan array binding signal (z-score),Gal(b1-3)GalNAc,-0.176
same,glycan array binding signal (z-score),[8],-0.459
same,glycan array binding signal (z-score),[9],-0.413
same,glycan array binding signal (z-score),[10],-0.099
same,glycan array binding signal (z-score),Gal(b1-3)GlcNAc,-0.477
same,glycan array binding signal (z-score),[11],-0.086
same,glycan array binding signal (z-score),[12],-0.506
same,glycan array binding signal (z-score),[13],-0.359
same,glycan array binding signal (z-score),[14],-0.114
same,glycan array binding signal (z-score),[15],-0.316
same,glycan array binding signal (z-score),[16],0.239
same,glycan array binding signal (z-score),[17],0.192
same,glycan array binding signal (z-score),[18],-0.265
same,glycan array binding signal (z-score),[19],-0.372
same,glycan array binding signal (z-score),[20],-0.129
same,glycan array binding signal (z-score),[21],-0.582
same,glycan array binding signal (z-score),Gal(b1-4)Glc,-0.458
same,glycan array binding signal (z-score),Gal(b1-4)Glc6S,0.19
same,glycan array binding signal (z-score),Gal(b1-4)GlcNAc,-0.367
same,glycan array binding signal (z-score),[22],4.96
